This passage reports self-cleavage results from the RNAGym collection of RNA variant scans (doi:10.7554/elife.90254).

B1: LINE1-mini (parent)
chain: GGCAGAGCUCAACACAGCGUGGCAAAGUGGCUGUGGCUAGACUGCC

Read counts are not given, so values of variants with three or more changes are uncertain.

The variants in the data set derive from B1. The data set is described as follows: self-cleavage, relative activity (ratio to wild type); higher = more cleavage; in vitro, sequencing; the parent is a self-cleaving ribozyme.
For C8A U9G U38A C46A, the self-cleavage stood at 0.07. With C8A C23A G36U G40U, the self-cleavage turned out to be 0.08. Regarding C8A U9C U20G G22C G36C, the self-cleavage came to 0.07. Take C8G A11C U34A C42G: the self-cleavage turned out to be 0. In the case of C8A U20C U38G, the self-cleavage is 0.07. In the case of C8A C37A U38G it was 0.03. With C8A C13U C23U, the self-cleavage came out at 0.22. For C8G A16U G21A, the self-cleavage came out at 0.01. As to C8A C15U G17U, the self-cleavage came out at 0.06. For C8G A11U C23U A25C C31A C46U, the self-cleavage stood at 0.01. In the case of C8G A16G G22U A26U it was 0.07; in that of C8A G22C G27U G29U, 0.04.

With C8A G19A G21A A24G G36A, the self-cleavage was found to be 0.67. Regarding C8A G17A G19A G21A G35U, the self-cleavage was determined as 0.06. In the case of C8A G19C G30A it was 0.13; in that of C8A U9A G22U A25C, 0.5.

As for C8G C10A G21U G27C G35A U43C, the self-cleavage was 0.04. For the variant C8G C10A G21A G29A U32C, the self-cleavage was 0.01.

With C8A G19U A25U, the self-cleavage worked out at 0.15. As for C8A G27U G35U, the self-cleavage is 0.48.

With C8A G21C G27C A39U, the self-cleavage was 0.14.

Consider C8A U32G G36C U38G, for which the self-cleavage was determined as 0.16. In the case of C8A G21C G29A C31A, the self-cleavage is 0.12. Regarding C8A U28C C45G, the self-cleavage is 0.26.

Take C8A C31A G33U: the self-cleavage came out at 0.21. Take C8A C23U A24U G33A: the self-cleavage stood at 0.18. Take C8A U32C A39G C42A: the self-cleavage stood at 0.38.

For the variant C8A G29C G40U C45A, the self-cleavage was 0.14. In the case of C8A G40A U43G it was 0.2. Take C8A C13G G35C C45G: the self-cleavage amounted to 0.04.

Consider C8G A25U U28A U34G C37U C45A, for which the self-cleavage turned out to be 0.01. C8G A11U A24U A41C: the self-cleavage was 0.02.

Consider C8A G19U G40C U43C C45U, for which the self-cleavage was 0.06.

As to C8A G22A A26C U38C G40U, the self-cleavage was found to be 0.07.

As for C8A G33U U38A, the self-cleavage turned out to be 0.03. Consider C8A G21A C31U, for which the self-cleavage amounted to 0.19. For C8A G19C A39U C42U, the self-cleavage is 0.03. The figure for C8A C18U G21U G35U A39U is 0.22. In the case of C8G A14C A41U it was 0.1; in that of C8A U9G G21C G27U, 0.05; in that of C8G A11C G40A C46U, 0.01.

On to C8A C13U C18G G33U C45U, for which the self-cleavage amounted to 0.06.

Take C8A C15U A39C G44U: the self-cleavage was determined as 0.18. With C8A U32C A41U, the self-cleavage came out at 0.2. As to C8A C15A G19C C45A, the self-cleavage was determined as 0.47. For the variant C8G A24U C31U, the self-cleavage was 0.1.

As to C8A C15G C31U U34G C45U, the self-cleavage was determined as 0.15. Take C8G A14G G33C C37U U38G U43A: the self-cleavage amounted to 0.03. As to C8A G27C A39G, the self-cleavage worked out at 0.02. For C8A U28C A39C C42G, the self-cleavage was 0.09. On to C8A C23G A24C, for which the self-cleavage amounted to 0.34. In the case of C8G A26C G27A C46G it was 0.03; in that of C8A C13U C15A G30A, 0.33. Turning to C8A U9A G21U G33C C46A, the self-cleavage is 0.05. For the variant C8G A11C C23U G40A C42U, the self-cleavage was 0.

With C8A U20G G33A, the self-cleavage was 0.15.

Regarding C8G A16C G22C G27U, the self-cleavage turned out to be 0.06.

Consider C8A C13G G29A C42G G44A, for which the self-cleavage was determined as 0.92. The figure for C8G C10A A11U is 0.02. Consider C8A U38A A41C, for which the self-cleavage amounted to 0.28. In the case of C8A U9G G33U A41G it was 0.03; in that of C8A C18U C31G U34A A39G, 0.03; in that of C8A G36C C46A, 0.48. As for C8A C13U U20G A25U G35U, the self-cleavage amounted to 0.26. C8A C15G C45U: the self-cleavage stood at 0.23. As to C8A C23A G36U, the self-cleavage was 0.11. In the case of C8G A25C C31A, the self-cleavage was determined as 0.04. The figure for C8A U9C G17A G21A G22U U38G is 0.03; for C8A G19A C23G G27U G36C A41U it is 0.09. With C8A G22C C37A C46A, the self-cleavage is 0.22. The figure for C8A C23A C46G is 0.2.

On to C8G C10A G22A, for which the self-cleavage came out at 0.01. The figure for C8A U28A C31U is 0.09. Take C8A C42G U43G: the self-cleavage was 0.16. On to C8A G17C A26U G30U, for which the self-cleavage amounted to 0.55. Regarding C8G A11G C18U G21C G30U G35U C46U, the self-cleavage came out at 0.01. For the variant C8A C18A G21A C45G C46U, the self-cleavage turned out to be 0.36. In the case of C8G A11G G36C it was 0.01; in that of C8A U28G U43A C45A, 0.17; in that of C8A U28A C46A, 0.08. The figure for C8G A11G A26U G40U C42U is 0; for C8A C23A G29U G35U C42A it is 0.01. Turning to C8G A16G G17A U38A, the self-cleavage came out at 0.01. In the case of C8A U20A G40A it was 0.11.

For the variant C8G A12U G21A U28G, the self-cleavage is 0.09.

As to C8A G22C G27C, the self-cleavage stood at 0.22. For C8G A12C C23A, the self-cleavage was 0.01. As for C8G A12U C13A G21U G35U, the self-cleavage stood at 0.4. Consider C8G A25G C31A, for which the self-cleavage stood at 0.04. For C8A C15G C18A, the self-cleavage came to 0.12. For C8G A11C G21C C31U G33C C37U C46G, the self-cleavage came out at 0.

Take C8A U9G G21U C46U: the self-cleavage turned out to be 0.02. As for C8A C18A G35U, the self-cleavage amounted to 0.02. In the case of C8G A14C G17C A24U U32G it was 0.04; in that of C8G C10A A24G, 0.03.

Take C8G A24G A39C A41U C45U: the self-cleavage came out at 0.03. For the variant C8A U9A A24U G35U G40A, the self-cleavage worked out at 0.22. For the variant C8A G21C G29A, the self-cleavage was 0.25. Regarding C8A G36A C46A, the self-cleavage turned out to be 0.15. As for C8A G22U C42U, the self-cleavage was 0.07. As to C8G A12G U34A A39U, the self-cleavage was 0.01. The figure for C8A G22A G27A C42U is 0.17. As for C8G A12C A16C A24U, the self-cleavage turned out to be 0.

For the variant C8A G19U C23U G29U A39G C45U, the self-cleavage was found to be 0.08. On to C8G A12U A26G, for which the self-cleavage turned out to be 0.13. C8G A16U C18A G21A G36U U38A: the self-cleavage stood at 0.04.

In the case of C8A U20A G27U G40A, the self-cleavage worked out at 0.12.

On to C8A C31A G40U, for which the self-cleavage was found to be 0.1.

With C8A G27U C42G C46A, the self-cleavage is 0.19. The figure for C8A G29A U43A is 0.03.

Take C8G A11U A16G G21U U28C G44U: the self-cleavage turned out to be 0.01. Take C8G C10A A26G C37U C42A C45U: the self-cleavage was determined as 0.01.

On to C8A G40U U43G C45A, for which the self-cleavage stood at 0.01. With C8A U9G A25U G36U, the self-cleavage turned out to be 0.05. Consider C8A G35U C37G, for which the self-cleavage stood at 0.03. With C8G A12C G30C, the self-cleavage came out at 0. As to C8A G21A C45A, the self-cleavage stood at 0.63. As for C8G A24G G33U U43C, the self-cleavage amounted to 0.04. Regarding C8A C23U A41U, the self-cleavage was 0.63. As for C8A C18G C42A, the self-cleavage is 0.15. The figure for C8G A11G C18G C45A is 0.02. In the case of C8A C13U C45G it was 0.22. Consider C8A G40A C45G, for which the self-cleavage was found to be 0.46.

Turning to C8A U9A C10A C18A G33U, the self-cleavage worked out at 0.

Consider C8A G36U C42A, for which the self-cleavage amounted to 0.09. Take C8A G19U U28C G29U: the self-cleavage was 0.05. As for C8A U32A G36A C42U, the self-cleavage came out at 0.05.

Regarding C8A G17U G44A, the self-cleavage amounted to 0.16. C8A C15A U28A: the self-cleavage amounted to 0.11. On to C8G A16U A26G G29C, for which the self-cleavage was 0.01.

C8G A26C G30A U32A A41G: the self-cleavage is 0.01. The figure for C8A U9A G36A is 0.27; for C8G C10A U20C G33U U38G A41C it is 0. Turning to C8A G22C A26C G36U, the self-cleavage was determined as 0.09.

Regarding C8A U20A G35C, the self-cleavage stood at 0.07. C8A G35C G36U G40C: the self-cleavage is 0.19. For C8G A14U G30U U38A, the self-cleavage is 0.15. For the variant C8G A12C G40U, the self-cleavage is 0.02. Regarding C8A U9G C37G A41U, the self-cleavage worked out at 0.03. In the case of C8A C18A G40A A41C it was 0.07; in that of C8G A12C G30A U32C G33A G36U U38G, 0.

Regarding C8A G17C C42A, the self-cleavage amounted to 0.09.

In the case of C8A C15A A24C G30A, the self-cleavage turned out to be 0.27. As to C8G A24U G44C, the self-cleavage stood at 0.06.

For C8G A11U G19U U34G G40U, the self-cleavage worked out at 0.02.

As to C8A C18U U28C U34C G40A, the self-cleavage turned out to be 0.12. As for C8A C18G G27C C31A C37A U43C, the self-cleavage turned out to be 0.01. Turning to C8A G35U A39G, the self-cleavage is 0.11. Take C8A G22C C23G G29U C37A: the self-cleavage was determined as 0.06. Take C8A C13U U38A: the self-cleavage was 0.01. On to C8G A24U C46U, for which the self-cleavage was determined as 0.08. As to C8G A16C C18G U38G C46G, the self-cleavage turned out to be 0.04. Take C8A C13U C42G: the self-cleavage was found to be 0.3. The figure for C8A G19U U43A G44U C45U is 0.09; for C8A U9G C10G A12C U28A G36U it is 0. With C8G A14G G27C, the self-cleavage turned out to be 0.05. Take C8A G27U U43A: the self-cleavage came out at 0.07. For the variant C8A G19A G22C G30U, the self-cleavage is 0.11.

Regarding C8A C13U A16C G35A, the self-cleavage was 0.22. Turning to C8G A14G G21U, the self-cleavage is 0.19. Take C8G C10A U20C: the self-cleavage was found to be 0. For the variant C8A G21U G35A, the self-cleavage is 0.92.

Take C8A C42U C45A C46A: the self-cleavage amounted to 0.06.

As to C8A C23G C42A, the self-cleavage worked out at 0.2.

C8A G19C U32C: the self-cleavage worked out at 0.23.

Take C8G A24U G30U U32C: the self-cleavage worked out at 0.2. In the case of C8G A39C G44A, the self-cleavage came out at 0.03.
